Test results reported in the RNAGym collection of RNA variant scans (doi:10.7554/elife.90254).
The source gives no read counts; variants with many changes may rest on few reads.

B1: OR4K15 (parent)
chain: GUUAACGGUCAUAGGCCAUGGAAACUAGGAGCACCAUUUCGCUGCCAGUGAAGAAAUGAACAAAGAAAAUCUGGGCCAGGCAGGCAUCAAAAGAAAUAGUCUUGCGCUCAACCAGAAAGUCUGUAAUCAUUUUAAGGGUA

Variants of: B1
Test: self-cleavage, relative activity (ratio to wild type); higher = more cleavage; in vitro, sequencing; the parent is a self-cleaving ribozyme

| Variant | self-cleavage |
| --- | --- |
| A23G A64G U70C | 0.98 |
| C34U A66G A118G | 0.95 |
| A89U A96U U132C | 2.15 |
| A11C A60G A68G A110G | 0.33 |
| U39C A47G A56G A78U U120A | 0.32 |
| U9C G14A A69G G104A A114G | 0 |
| A24G A47G U70C | 0.14 |
| U43C A54G A55G A64G U70C A94G | 0.35 |
| A36G A59G A118G | 1.42 |
| A69G A111G A126U U132C | 0 |
| A30G A33G U38C U70C | 0.49 |
| G7A A62G A67U G84U | 0.56 |
| U26C A30G A98G | 0.72 |
| U26C A47G A126G U132C | 0.77 |
| A5U A11U A13G A110G | 0.14 |
| U2A A54G A66G A95U | 1.63 |
| A5U A54G C88A U132C | 1.25 |
| G75A U103C A125C | 0.02 |
| U9C A23G A55G U108C A114G | 0.02 |
| A24U A129G U130C | 1.49 |
| A18U A24G U87C C109U | 0.54 |
| U19A A54G A86G | 1.42 |
| A51U C105U A125G | 0.04 |
| A54G A68C A89G U120C U122C | 1.11 |

| Variant | self-cleavage |
| --- | --- |
| A91G A110U U127C | 0.39 |
| A67G A98G U100C A114U A118G U122A G137A | 0.02 |
| A30G C85U A94G U103C U130A | 0.12 |
| A47U G104U U130C | 0.01 |
| U9A A23G U39C | 1 |
| U12C A22G A90G | 1.07 |
| A5G G8A U37A U43C U127C G137A | 1.23 |
| A27G U38C A126G | 1.04 |
| U26C A52G A68G U70C A116G | 1.59 |
| U38C A59G U127C | 1.67 |
| A52G A64G A68G | 0.89 |
| A18G A47C A110U | 0.94 |
| A24U A36G U37C A51G A68G | 0.82 |
| A66G U87C A96G | 2.11 |
| U9A U12G A129G | 0.15 |
| U12C A59U U108C A129G | 0.02 |
| U37C A51G A67U A118G | 0.55 |
| U19C A24G C45A A92G A96G A135G | 0.69 |
| A52U A92G U100C | 2.31 |
| A36G A117G U122A | 2.36 |
| U9C U49C U57C A135G | 0.46 |
| U57C A62G A67U | 1.12 |
| C10U A33G U131A A140U | 0.29 |
| U3G U37C A78U U108C A129U | 0 |

| Variant | self-cleavage |
| --- | --- |
| U2C A33G A116G | 0.4 |
| A22G A52G A60C A96G | 0.47 |
| A60G A92U A95G U130C | 1.38 |
| A24G U122C U131C | 1.2 |
| A52C A54G A92G A140C | 0.91 |
| U37A A60G A66G A91G | 1.37 |
| A18G A55G A118C | 0.46 |
| U38A A62G A117G U122C | 1.74 |
| U2C A18U U38A A51G A66U U122A | 1.01 |
| U49C A55G A89G A95U U127C | 0.84 |
| A22G A60G A89U | 1 |
| A36G A59G U131A | 0.86 |
| A5G C40U A125G | 0.54 |
| A89G U102A A110G U127C | 0.02 |
| U9A A55G A78G U108C A114G | 0.02 |
| A60C U102C A125G | 1.21 |
| A23G U57C A135U | 1.98 |
| A11G A33G A51G A60U U132C | 0.41 |
| G8A A55G A89G | 1.19 |
| G7A U19C A51G A52U A67G A94G | 1.17 |
| U9C U37C A51G A55G A82U | 0.2 |
| A56U G104A U132A | 0.04 |
| A54G A60G A86G | 1.55 |
| A90G A98G A117G | 0.29 |

| Variant | self-cleavage |
| --- | --- |
| A24G U39C U72C | 0.64 |
| G15A U37G A55G A64G A69G A78U A96G | 0.14 |
| G41A A82G C109U A110G U139A | 0.02 |
| A5G U12C U120A | 1.96 |
| U57A U87C U120C | 0.5 |
| U72C C77A U103A | 0.06 |
| A59G A94U A96G U100C U122C | 1.92 |
| U43C A67G A110G U132C | 0.05 |
| A13G A30G U122C | 0.8 |
| A30U A69G G74A U127C | 0.07 |
| A33G A55G G106A U120C | 0.01 |
| U2C A5G A30G | 0.63 |
| A54G U108C U132C | 0 |
| G50A A78U A96G U131C | 0.31 |
| A23U A36U U43A A51G U72C | 0.36 |
| U70C A116G A117G | 2.01 |
| A5U A30G A36U G44A | 1.02 |
| U2C A24G A51G A78C U122C | 0.24 |
| U43A A82G A92G A116G | 0.26 |
| A68G U108C G115A | 0.02 |
| A55G A68G A111G | 0.02 |
| A66G A67G A95G | 1.75 |
| A18U A22G U37C A52G U122A | 0.75 |
| A51U A60U G75C A89G A116G | 0.06 |

| Variant | self-cleavage |
| --- | --- |
| U39C A60G A67G | 1.67 |
| A94G A114U A118G | 0.02 |
| G83A A92G U122A | 2.44 |
| A64G A82U U87C | 0.16 |
| U26C U49G G119A U127C | 2.47 |
| A22G A78U A86G U87A | 0.28 |
| U2C U37C U39C A68U | 1.55 |
| U57A A68G A96G | 0.79 |
| A11G A51U U72C U131C | 0.21 |
| A23G A24U U39C U57C A94G A118U | 0.52 |
| A62G A68G A92G | 1.04 |
| U49C A54G A78G | 0.32 |
| A59G A82U A98U U120C | 0.14 |
| U19C U37C A96G | 0.42 |
| U38C A47G U139C | 1.42 |
| A18G U26C A111G A117G A118G | 0 |
| U3C A59U A98U U122C | 1.25 |
| U39A A55G A86U U103C U139C | 0.74 |
| U37C U57A U87C | 0.18 |
| C45U A90G U130A | 0.36 |
| G80U A82G G99U G106C U122C | 0 |
| U43C A78U G83U A116U | 0.03 |
| A92G C107U U120C | 0 |
| U2C G7A A18U A94U | 1.14 |

| Variant | self-cleavage |
| --- | --- |
| A22G A95G A117G U122C | 1.54 |
| A27U U43C A56G U70C U122C | 0.39 |
| A66C G75A A91G U108C A118G U127C | 0 |
| A68G U100C A140G | 2.65 |
| A82G A114G U120C | 0.02 |
| G8A A116G U120C | 0.49 |
| A68U A82G U100A | 0.15 |
| A47G A62U G75A | 0.08 |
| C34U A55G A59G | 0.46 |
| U3C A60G A78G U97A | 0.25 |
| A60U U70C A78C A134G | 0.23 |
| A24G U26G U43C A55G A60G U72A G79A A91G | 0.18 |
| A55G A67G U70A A92G A96G A134U | 0.71 |
| A11G U87C G106A A118U | 0.04 |
| A11G A62G A68G A95G U131C | 1.37 |
| U2A U37C U70C A114G U122C | 0 |
| U43A A52G A67G | 0.94 |
| U9A U37C U108C A135G | 0.01 |
| U9A A95C A111G A117G | 0.01 |
| A60G A78G A90U U120C A125G | 0.02 |
| A23G U37C A67U A94U | 1.15 |
| A4G A11G A110C | 0.35 |
| U43C A56G U57A U100C | 1.61 |
| A22G U97C G106A A116G | 0 |

| Variant | self-cleavage |
| --- | --- |
| U39A A64G G74A | 0 |
| A11G U57C A66G A86G | 0.39 |
| A33U A64G U87C A91G A94U A96G U103C | 0.67 |
| A54G A59G U103C | 0.79 |
| A30U A56G U72A A78C | 0.33 |
| A62G A67G A126G | 1.56 |
| U37C A86G A94G U127C | 0.75 |
| A51G U103G U132C | 0.02 |
| U9C A22G A60G A111U | 0.17 |
| U12C A62C A110G A140U | 0.15 |
| A30U A47G U131C | 0.96 |
| A55G C85G U132C | 0.41 |
| A98G U108C U122C | 0.01 |
| A30G U43A U100C G104U U133C | 0.01 |
| U39C U102C U131A | 2.84 |
| A22G A30G U37C A111U U133C | 0.13 |
| A47G A63G U139A A140U | 1.39 |
| A5U A59G U120A A129U | 1.09 |
| U37C A60G U108C | 0.01 |
| A86G A94G U130C | 0.86 |
| U38C A55G A94G U131C | 2.12 |
| U2C A33U A59G C113U A116G | 0.01 |
| A22G A67U A69G | 1.37 |
